The text below walks through data of PMC4336329 (PLoS ONE, 2015).

About 2,200 (0.71%) of roughly 310,000 compounds showed an effect of 50% or more. Effects have a minus sign here. The list shows a part of the results.

In this assay the target is human ether-à-go-go-related gene (hERG) potassium channel (human, UniProt Q12809). Briefly: primary screen, population patch clamp on CHO cells stably expressing hERG.
human ether-à-go-go-related gene (hERG) potassium channel, sequence (Q12809 whole entry, looked up): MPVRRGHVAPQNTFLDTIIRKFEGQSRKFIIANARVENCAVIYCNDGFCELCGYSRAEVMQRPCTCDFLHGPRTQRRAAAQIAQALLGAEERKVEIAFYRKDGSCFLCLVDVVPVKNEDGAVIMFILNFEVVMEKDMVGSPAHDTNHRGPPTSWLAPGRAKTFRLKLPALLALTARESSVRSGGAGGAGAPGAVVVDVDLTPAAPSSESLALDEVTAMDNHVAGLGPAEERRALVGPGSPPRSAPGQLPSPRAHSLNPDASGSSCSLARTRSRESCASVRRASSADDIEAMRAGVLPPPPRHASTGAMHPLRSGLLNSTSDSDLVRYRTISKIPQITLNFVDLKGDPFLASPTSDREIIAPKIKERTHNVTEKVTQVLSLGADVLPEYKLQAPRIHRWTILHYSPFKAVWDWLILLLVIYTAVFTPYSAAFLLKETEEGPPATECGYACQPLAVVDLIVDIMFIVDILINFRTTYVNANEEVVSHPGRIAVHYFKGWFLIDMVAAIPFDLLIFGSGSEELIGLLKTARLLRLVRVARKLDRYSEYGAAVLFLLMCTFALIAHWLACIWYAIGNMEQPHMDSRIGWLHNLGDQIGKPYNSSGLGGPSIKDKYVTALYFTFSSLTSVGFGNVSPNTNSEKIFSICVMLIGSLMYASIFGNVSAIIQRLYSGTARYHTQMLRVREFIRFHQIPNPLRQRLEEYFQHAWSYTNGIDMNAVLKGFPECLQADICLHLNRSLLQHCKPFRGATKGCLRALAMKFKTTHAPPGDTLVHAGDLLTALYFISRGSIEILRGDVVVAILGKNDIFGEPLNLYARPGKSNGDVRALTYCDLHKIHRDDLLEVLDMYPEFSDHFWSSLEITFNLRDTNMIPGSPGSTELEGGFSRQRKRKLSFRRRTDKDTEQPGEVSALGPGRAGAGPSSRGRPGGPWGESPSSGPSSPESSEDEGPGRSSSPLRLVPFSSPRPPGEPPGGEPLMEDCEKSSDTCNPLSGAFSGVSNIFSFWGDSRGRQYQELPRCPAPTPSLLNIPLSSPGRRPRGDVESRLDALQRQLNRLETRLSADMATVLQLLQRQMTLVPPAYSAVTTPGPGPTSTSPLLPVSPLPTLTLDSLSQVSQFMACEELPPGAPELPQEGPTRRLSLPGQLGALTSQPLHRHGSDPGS
Consider `C/C(=N\Nc1nccnc1Cl)c1ccc([N+](=O)[O-])cc1`, for which the “hERG current change (%, negative = inhibition) at 1uM” value was 2.97%. Turning to `CCn1c(N2CCN(C(=S)NCCc3ccccc3)CC2)nc2ccccc21`, the “hERG current change (%, negative = inhibition) at 1uM” value is -10.5%.

Regarding `O=C(CSc1nnnn1Cc1ccccc1)Nc1ccc2c(c1)OCO2`, the “hERG current change (%, negative = inhibition) at 1uM” value stood at 5.49%. Consider `Cc1ccc(C2C(C(=O)O)c3ccccc3C(=O)N2C)o1` (stereo not drawn), for which the “hERG current change (%, negative = inhibition) at 1uM” value is given as 4.55%.

Regarding `CCN(CC)c1ccc(C(=O)NNC(=O)c2ccc3c(=O)n4c(nc3c2)CCC4)cc1`, the “hERG current change (%, negative = inhibition) at 1uM” value came out at 12.6%. Turning to `CCCCn1c(N)c(N(CC(C)C)C(=O)c2ccc(-n3c(C)ccc3C)cc2)c(=O)[nH]c1=O`, the “hERG current change (%, negative = inhibition) at 1uM” value is reported as 19.6%.

For `CN(C)c1nc(Oc2ccc(=O)[nH]n2)nc(N2CCOCC2)n1`, the “hERG current change (%, negative = inhibition) at 1uM” value is given as 10%.

With `COCCn1c(SCC(=O)Nc2cccc(S(N)(=O)=O)c2)nc2ccccc21`, the “hERG current change (%, negative = inhibition) at 1uM” value came out at 7.14%.

As for `CCc1c(C)c2ccc(OCC(=O)NCC3CCC(C(=O)O)CC3)cc2oc1=O` (stereo not drawn), the “hERG current change (%, negative = inhibition) at 1uM” value came to 11%.

Regarding `COc1ccc(NS(=O)(=O)c2ccc(C)c(NC(=O)C3CCCO3)c2)cc1` (stereo not drawn), the “hERG current change (%, negative = inhibition) at 1uM” value is given as -2.11%. With `Cc1c(C#N)c(NC(=O)CCl)n(Cc2ccc(F)cc2)c1C`, the “hERG current change (%, negative = inhibition) at 1uM” value came to 13.1%.

For `CN1CCN(C(=O)c2cc3nc(-c4ccc(Cl)cc4)cc(C(F)(F)F)n3n2)CC1`, the “hERG current change (%, negative = inhibition) at 1uM” value is listed as -1.45%. As for `CC(=O)N1CCSc2ccc(S(=O)(=O)N3CCC(C)CC3)cc21`, the “hERG current change (%, negative = inhibition) at 1uM” value worked out at 7.4%. `COc1ccccc1OCC(=O)OC/C(O)=C(\C#N)c1nc2ccccc2[nH]1`: the “hERG current change (%, negative = inhibition) at 1uM” value was determined as 8.29%.

As to `COc1ccc(-c2[nH]ncc2CN2CCN(Cc3cccs3)CC2)cc1F`, the “hERG current change (%, negative = inhibition) at 1uM” value was -0.183%. The result for `COC(=O)c1ccc(COC(=O)CCc2nc(-c3ccccc3)c(-c3ccccc3)o2)cc1` reads -0.402%. Consider `CCCCN(C)C(=O)C1CCCN(S(=O)(=O)c2ccc3c(c2)CC(C)N3C(=O)C2CC2)C1` (stereo not drawn), for which the “hERG current change (%, negative = inhibition) at 1uM” value was 0.928%. Under `COc1cccc(C2=NN(C(=O)CCCC(=O)O)C(c3cccs3)C2)c1` (stereo not drawn) stands 15.6%. In the case of `O=C(O)c1ccc(S(=O)(=O)Nc2ccc3c(c2)OCCO3)cc1`, the “hERG current change (%, negative = inhibition) at 1uM” value was 4.41%.

Regarding `O=C(Nc1ccc(NC(=O)c2ccco2)nc1)c1ccco1`, the “hERG current change (%, negative = inhibition) at 1uM” value worked out at 3.4%. For the molecule `CCOC(=O)C1CCN(C(=O)C2CCN(c3nc4ccc(OC)cc4s3)CC2)CC1`, the “hERG current change (%, negative = inhibition) at 1uM” value is given as -53.4%.

Take `Cc1cn2c(nc1=O)OC1CC2OC1CO` (stereo not drawn): the “hERG current change (%, negative = inhibition) at 1uM” value amounted to 13.7%. Under `C=CCOC(=O)C1=C(C)Nc2ncnn2C1c1cc(Br)ccc1F` (stereo not drawn) stands -1.52%; under `CCN(CC)CCSc1nc2ccccc2c(=S)n1-c1ccccc1.Cl`, 4.78%.

For the molecule `COC(=O)c1ccccc1CC1SC(N)=NC1=O` (stereo not drawn), the “hERG current change (%, negative = inhibition) at 1uM” value is recorded as 14.3%.

For `CC(CNC(=O)C1CCCCC1C(=O)O)c1ccccc1` (stereo not drawn), the “hERG current change (%, negative = inhibition) at 1uM” value is given as -4.71%. Take `CN(Cc1nc(-c2ccccc2)no1)C(=O)c1ccco1`: the “hERG current change (%, negative = inhibition) at 1uM” value stood at 11.9%.

Consider `CCOC(=O)c1ccc(S(=O)(=O)NC2CCCCCCC2)n1C`, for which the “hERG current change (%, negative = inhibition) at 1uM” value came to 10.1%. Under `COc1ccc2[nH]c(=O)c(-c3noc(-c4ccccc4)n3)cc2c1` stands 8.48%; under `O=C(O)Cc1ccccc1C(=O)O`, 0.403%; under `Cc1ccc(N=C(/N=C(\N)N[N+](=O)[O-])Nc2ccc(C)cc2)cc1`, 5.3%. As to `COCCNC(=O)CN(Cc1ccccc1)C(=O)CCC(=O)Nc1nccs1`, the “hERG current change (%, negative = inhibition) at 1uM” value worked out at 18.2%. The result for `CNc1nc(Oc2ccc(=O)n(C)n2)nc(N2CCOCC2)n1` reads -2.31%.

Regarding `COc1ccccc1CNC(=O)CC(NS(=O)(=O)c1ccc(C)cc1)c1ccco1` (stereo not drawn), the “hERG current change (%, negative = inhibition) at 1uM” value was 6.67%. Under `O=C1Nc2ccccc2/C1=C/c1ccccc1F` stands 16.2%. Regarding `N#C/C(=C(/O)c1cccc(F)c1)c1nc2ccccc2s1`, the “hERG current change (%, negative = inhibition) at 1uM” value came out at 16.2%. On to `CS(=O)(=O)c1ccccc1-c1nnc(NC(=O)COc2ccc(Cl)cc2)o1`, for which the “hERG current change (%, negative = inhibition) at 1uM” value is listed as 9.74%. As to `COc1ccc(OC)c(/C=N/NC(=O)c2nnn(-c3nonc3N)c2-c2cccs2)c1`, the “hERG current change (%, negative = inhibition) at 1uM” value amounted to 12.6%. Under `COC(=O)C(C)Sc1nnc(SC(C)C(=O)OC)s1` (stereo not drawn) stands 23%; under `Cn1c(O)c(N=NC(=O)Cn2c(C(F)(F)F)nc3ccccc32)c2ccccc21`, -0.0289%. The result for `Cc1ccc(N=Cc2c(O)c3ccccc3n(C)c2=O)cc1` reads 14.6%; that for `C=CCNC(=O)C1CC(=O)N(c2ccc(OCC(=O)N3CCCC3)cc2)C1` (stereo not drawn), 14.8%.

As for `OC(CNCc1ccc(Cl)cc1)(c1ccccc1)c1ccc(F)cc1` (stereo not drawn), the “hERG current change (%, negative = inhibition) at 1uM” value came to 12.3%. The result for `CCOC(=O)Cc1csc(NC(=O)c2ccco2)n1` reads 1.68%. Under `COc1ccc(NC(=O)/C=C/c2ccc(OC(F)F)cc2)cn1` stands 9.26%; under `COC(=O)c1ccc(N=NNc2ccccc2)cc1`, 8.1%; under `O=C1NC[C@H](c2ccccc2)N(CCc2cccc3ccccc23)C1=O`, 2.78%.

Turning to `COc1ccc(NC(=S)NNC(=O)CCn2cc([N+](=O)[O-])cn2)cc1`, the “hERG current change (%, negative = inhibition) at 1uM” value is given as 16%. Under `O=C(NCCN1CCOCC1)c1ccc2ccccc2c1` stands 13.5%; under `COC(=O)C1=C(c2cc3ccccc3s2)C[C@@H]2CC[C@H]1N2C(=O)NCc1cccc2ccccc12`, 13.7%; under `COc1ccc(/C=N/NC(=O)CSCc2ccc([N+](=O)[O-])cc2)cc1OC`, 5.43%.

Turning to `O=C(O)/C=C/C(=O)N1CCN(c2ccc(F)cc2)CC1`, the “hERG current change (%, negative = inhibition) at 1uM” value was determined as 11.2%.

Turning to `O=C(CCOc1ccccc1)Nc1cccc(S(=O)(=O)Nc2ccccc2Cl)c1`, the “hERG current change (%, negative = inhibition) at 1uM” value is given as -2.15%.

Consider `CC1(C)CC(NS(=O)(=O)c2ccc(Cl)cc2)CC(C)(C)N1`, for which the “hERG current change (%, negative = inhibition) at 1uM” value stood at 14.5%. Under `CC(C)=C1SC(N2CCN(c3cccc(C)c3)CC2)=NC1=O` stands -3.92%; under `Cc1ccc(S(=O)(=O)N2CCN(C(=O)CN3C(=O)NC4(CCCCC4)C3=O)CC2)c(C)c1`, 10.6%; under `COc1c2c(c(C)c3c1C(=O)OC3)O[C@@]1(C)CC[C@@]3(O)C(C)(C)OC(=O)CC[C@]3(C)[C@H]1C2`, 6.72%. As to `CC(=O)OCC(=O)Nc1c(C)cccc1C`, the “hERG current change (%, negative = inhibition) at 1uM” value came out at 11.3%. Under `Oc1cc2c(cc1O)[C@H]1c3ccc(O)c(O)c3OC[C@@]1(O)C2` stands 14.2%; under `Cc1ccc(O)c(N=NC2=C(O)CC(C)(C)CC2=O)c1`, 6.39%; under `Cn1c(SCC(=O)Nc2ccc(C(N)=O)cc2)nc2c(c1=O)SCC2`, 12.7%. Under `Cc1ccc2c(c1)N(S(=O)(=O)c1ccc(F)cc1)C(C(C)(C)C)CO2` (stereo not drawn) stands 16.3%. `CCOC(=O)[C@@H]1[C@H]2COc3ccccc3[C@@H]2N2C(=O)N(c3ccccc3)C(=O)[C@]12C`: the “hERG current change (%, negative = inhibition) at 1uM” value turned out to be 5.97%. The result for `Cc1ccc(CNC(=O)[C@H](Cc2ccccc2)NC(=O)C2CCNCC2)cc1` reads 5.28%; that for `COc1cc(OC)cc(-c2cc3nc(C)c(CCC(=O)NCc4ccccc4)c(C)n3n2)c1`, -0.576%. Regarding `CN(C)N1C(N)=C(C#N)C(c2ccc(Cl)cc2)C2=C1CCCC2=O` (stereo not drawn), the “hERG current change (%, negative = inhibition) at 1uM” value is -0.808%. The result for `CSCCC(NS(=O)(=O)c1ccccc1F)C(=O)NCC(C)(C)N1CCOCC1` (stereo not drawn) reads -1.69%; that for `CCOc1ccccc1CN1CCN(Cc2cn(C)nc2-c2ccccc2)CC1CCO` (stereo not drawn), -21%; that for `COc1ccc(CCNC(=O)c2cc(C(=O)c3cc(Cl)ccc3O)cn(CCc3ccc(OC)cc3)c2=O)cc1`, 7.84%. On to `CC1CCCC(NC(=O)COC(=O)c2ccc(N(C)C)cc2)C1C` (stereo not drawn), for which the “hERG current change (%, negative = inhibition) at 1uM” value is given as -9.23%. The result for `CC#CCN1c2ccccc2[C@]23C[C@@H](C(=O)OC)N(C(=O)C4CCC4)C2=NC(C(=O)OC)=C(C(=O)OC)[C@H]13` reads 5.18%.

In the case of `CCc1ccc(-n2c(SCC(=O)Nc3cc(C)[nH]n3)nc3[nH]ncc3c2=O)cc1`, the “hERG current change (%, negative = inhibition) at 1uM” value was -7.74%.

In the case of `Cc1cccc(N2CCN(C(=O)CCCn3c(=O)c4cccn4c4cccnc43)CC2)c1C`, the “hERG current change (%, negative = inhibition) at 1uM” value is recorded as -14.3%. Take `CC(C)(C)c1nc(S(=O)(=O)c2ccc(Cl)cc2)c(N2CCOCC2)o1`: the “hERG current change (%, negative = inhibition) at 1uM” value turned out to be 2.56%. Under `CCOc1ccc(S(=O)(=O)N2CCCC(C(=O)NCC3CCCO3)C2)cc1Cl` (stereo not drawn) stands -1.41%; under `Brc1ccc(OCc2nnc3n2CCC3)cc1`, 3.03%. `O=c1cc(-c2cccnc2)oc2c1ccc1ccccc12`: the “hERG current change (%, negative = inhibition) at 1uM” value worked out at 10.6%.

For `Oc1[nH]c2ccccc2c1N=Nc1ccc(F)cc1`, the “hERG current change (%, negative = inhibition) at 1uM” value came out at 9.66%. Under `CCNC(=O)n1nccc1C(C)Oc1ccccc1` (stereo not drawn) stands -8.81%; under `C=CCOc1ccc(CNc2ccc(NC(=O)CC(C)C)cc2)cc1OC`, 19.3%. The result for `CSc1ccc(Cl)c(C(=O)OCC(=O)Nc2ccccc2OC(F)F)c1` reads 8.8%; that for `CCNc1nc(NCC)n2c(SCc3nc4ccccc4c(=O)[nH]3)nnc2n1`, 6.86%; that for `Nc1cccc(-c2cn(-c3cc4cc(C#CC5(O)CCCCC5)ccc4oc3=O)nn2)c1`, 14.4%. `Cc1ccc2cc(CN(C(=O)c3ccco3)c3ccccc3C)c(=O)[nH]c2c1`: the “hERG current change (%, negative = inhibition) at 1uM” value is -3.84%. The result for `COc1ccc(C2=NN(C(=O)COc3ncnc4ccccc34)C(c3ccco3)C2)cc1` (stereo not drawn) reads 8.36%; that for `Cn1c(CC(=O)NNC(=O)c2ccc(F)cc2Cl)nc2ccccc21`, 6.46%.

Regarding `CCOC(=O)N1CCN(C(=O)CCS(=O)(=O)c2ccc3c(c2)CCN3C(=O)CC)CC1`, the “hERG current change (%, negative = inhibition) at 1uM” value came to 16.7%.
